PubChem BioAssay AID1347430 (National Center for Advancing Translational Sciences (NCATS), 2020)
The campaign covered roughly 91,000 compounds. About 130 (0.14%) were called active. This list was built around the results that the source calls inconclusive (neither active nor inactive); the mix of calls is not that of the screen. Calls follow the shape of the dose curve; as a rule, active = well fitted inhibition curve with a large enough effect; inconclusive = small, poorly fitted or top-dose-only effect; inactive = flat fitted curve, though single readings scatter. Where the call is inconclusive, the potency comes from a doubtful curve fit.

Each compound was assayed on Uracil-DNA glycosylase (assay: Primary qHTS assay for inhibitors of Activation Induced Cytidine Deaminase (AID): UDG Counterscreen signal). Conditions: FRET deamination/UDG coupled assay, UDG read, 4 h; activity change, negative = inhibition: at 115 µM (top of the series).
% is scaled to controls: 0 for no effect and ±100 for the full control effect; potency is read from the fitted curve at half-maximal effect; tags tell the direction and shape of the fitted curve.
Also: nearly all actives have a fitted effect of over 65% in size.

With Cn1c(=O)c2c(SCC(=O)NCc3ccco3)nc(-c3ccccc3Cl)nc2n(C)c1=O as the compound, how does the Potency read?
The Potency was inconclusive: 10 µM [inhibitor, partial curve, poor fit].

For COc1ccccc1NC(=O)CSCc1cc(=O)c2c(C)cc(C)cc2[nH]1, which Potency is on record?
The Potency was inconclusive: 39.8 µM [inhibitor, partial curve, poor fit].

Cc1nc2c(cc(OCC(O)COc3ccc(C#N)cc3)c3ccsc32)s1 (configuration not stated) was tested. Which Potency did it give?
Its Potency is inconclusive: 25.1 µM [inhibitor, full curve].

For Cc1cccc(-c2noc(C3CC(=O)N(c4ccc5c(c4)OCCO5)C3)n2)c1 (configuration not stated), which Potency is on record?
The Potency was inconclusive: 56.2 µM [inhibitor, partial curve, poor fit].

For CC(=O)c1cc(-c2ccccc2)n(CC(=O)Nc2ccc(C)cc2C)c1C, which Potency is on record?
Its Potency is inconclusive: 89.1 µM [inhibitor, single point].

How did the Potency turn out when CCCCC1CCC[S+](c2cc(O)ccc2O)C1 (configuration not stated) was run?
The Potency was inconclusive: 3.98 µM [inhibitor, full curve, poor fit].

With Cc1ccc(-c2nc3ccccc3s2)cc1S(=O)(=O)N1CCOCC1 as the compound, how does the Potency read?
The Potency was inconclusive: 100 µM [inhibitor, single point].

Which Potency does the source give for Cc1cc(-c2ccc(C)c(S(=O)(=O)NCCc3ccccc3)c2)on1 here?
The Potency was inconclusive: 79.4 µM [inhibitor, partial curve, poor fit].

For CC(C)(C)c1noc(Cn2cnc3ccc(Cl)cc3c2=O)n1, which “activity change, negative = inhibition” value is on record?
Its value is inactive: -10.9%.

Cc1ccc(C)c(NC(=O)C(NS(=O)(=O)c2ccc3c(c2)CCC(=O)N3)c2ccccc2)c1 (configuration not stated) was tested. Which Potency did it give?
The Potency was inconclusive: 89.1 µM [inhibitor, single point].

For CC1CCN(S(=O)(=O)c2ccc3nc(N4CCN(c5ccccc5F)CC4)ccc3c2)CC1, which Potency is on record?
The Potency was inconclusive: 25.1 µM [inhibitor, single point].

How did the Potency turn out when O=C(NCc1ccc(Cl)cc1)C1(c2cccs2)CCOCC1 was run?
The Potency was inconclusive: 100 µM [inhibitor, single point].

For Cc1ccc(OCCSc2nc3ccccc3n2CC(=O)N2CCCCC2)cc1C, which Potency is on record?
Its Potency is inconclusive: 89.1 µM [inhibitor, single point].

Which “activity change, negative = inhibition” value does the source give for CN(CC(=O)Nc1cc2[nH]c(=O)[nH]c2cc1Br)Cc1ccccc1N1CCCC1 here?
Its value is inactive: 1.89%.

O=C(COCc1cc(-c2ccc3c(c2)OCO3)on1)N1CCN(c2cccc(C(F)(F)F)c2)CC1 was tested. Which Potency did it give?
The Potency was inconclusive: 89.1 µM [inhibitor, single point].

For CCCS(=O)(=O)c1nc(S(=O)(=O)c2ccc(C)cc2)c(NC(C)c2ccccc2)s1 (configuration not stated), which Potency is on record?
Its Potency is inconclusive: 44.7 µM [inhibitor, partial curve, poor fit].

With Cc1ccc(NC(c2cccc(Cl)c2)c2nnc(-c3ccccc3)o2)cc1F (configuration not stated) as the compound, how does the Potency read?
Its Potency is inconclusive: 100 µM [inhibitor, single point].

CCc1ccccc1N1CC(c2nc3ccccc3n2CCC2CCCCC2)CC1=O (configuration not stated) was tested. Which Potency did it give?
Its Potency is active: 79.4 µM.

CCOC(=O)N1CCN(C(=O)c2cnn(-c3cccc(C)c3)c2-n2cccc2)CC1 was tested. Which Potency did it give?
Its Potency is inconclusive: 100 µM [inhibitor, single point].

How did the “activity change, negative = inhibition” value turn out when Cc1cccc(N2CCN(C(=O)c3c4c(nc5ccccc35)C(=O)N(C3CCCCC3)C4)CC2)c1C was run?
Its value is inactive: 0%.

For COC(=O)c1c(NC(=O)CCCOc2ccccc2C)sc2c1CCC2, which Potency is on record?
Its Potency is inconclusive: 89.1 µM [inhibitor, single point].

With CCc1ccc(NC(=S)N(CC)c2ccccc2)cc1 as the compound, how does the “activity change, negative = inhibition” value read?
Its value is inactive: 11.8%.

With COc1ccc(NS(=O)(=O)c2cc3c4c(c2)CC(=O)N4CCC3)cc1Cl as the compound, how does the Potency read?
Its Potency is active: 89.1 µM.

For Cc1ccc(C)c(C(=O)CCC(=O)N2CCc3sccc3C2c2cccs2)c1 (configuration not stated), which “activity change, negative = inhibition” value is on record?
The value was inactive: -6.25%.

With COc1ccc(-c2noc(CSc3nnc(-c4ccncc4)n3-c3cccc(C)c3)n2)cc1OC as the compound, how does the Potency read?
Its Potency is active: 79.4 µM.

Which Potency does the source give for COc1cc(-c2nnc(SCC(=O)N(C)C3CCCCC3)o2)cc(OC)c1OC here?
The Potency was inconclusive: 100 µM [inhibitor, single point].

How did the “activity change, negative = inhibition” value turn out when CC(C)C(C)NC(=O)COc1ccc(-n2cnnn2)cc1 (configuration not stated) was run?
The value was inactive: -1.27%.

How did the Potency turn out when Cc1cc(O)c(C(c2ccccc2Cl)N2CCCCC2)c(=O)n1Cc1ccco1 (configuration not stated) was run?
The Potency was inconclusive: 100 µM [inhibitor, single point].

For COC(=O)C1=C(C)NC(=O)NC1c1cn(-c2ccccc2)nc1-c1ccc(OC)c(Cl)c1 (configuration not stated), which “activity change, negative = inhibition” value is on record?
The value was inactive: -20.7%.

Which Potency does the source give for Cc1ccc(CNC(=O)CCCn2ccc3cc(S(=O)(=O)N4CCCC4)ccc32)o1 here?
The Potency was inconclusive: 100 µM [inhibitor, single point].

How did the “activity change, negative = inhibition” value turn out when COc1cccc(/C=C(\C#N)c2nc3ccccc3c(=O)[nH]2)c1OC was run?
Its value is inactive: 0.193%.

Which Potency does the source give for CCCC(C(=O)Nc1cc(C)c(Cl)cc1OC)N1Cc2ccccc2C1=O (configuration not stated) here?
Its Potency is inconclusive: 89.1 µM [inhibitor, single point].

S=c1n(/N=C/c2ccc(Br)cc2)cnn1Cc1ccccc1Cl was tested. Which “activity change, negative = inhibition” value did it give?
The value was inactive: -6.19%.

For COC(=O)C(C)N1C(=O)S/C(=C/c2ccc(Sc3ccccc3)cc2)C1=O (configuration not stated), which “activity change, negative = inhibition” value is on record?
Its value is inactive: 4.54%.

CCOc1cc(CNCC2CCCO2)ccc1OCc1ccccc1 (configuration not stated) was tested. Which “activity change, negative = inhibition” value did it give?
The value was inactive: -3.11%.

CCS(=O)(=O)N1CC(=O)N(c2cccc(C)c2C)C(C)(C(=O)NC2CCCCC2)C1 (configuration not stated) was tested. Which Potency did it give?
The Potency was inconclusive: 89.1 µM [inhibitor, single point].

For O=C(CC(c1ccccc1)c1cc(Br)ccc1O)NCC1(c2ccccc2)CCCC1 (configuration not stated), which Potency is on record?
The Potency was inconclusive: 100 µM [inhibitor, single point].

With CCCCCCC1CC[S+](c2cc(O)ccc2O)CC1 (configuration not stated) as the compound, how does the Potency read?
Its Potency is inconclusive: 22.4 µM [inhibitor, full curve].

Which Potency does the source give for Cc1ccc(Cl)cc1N1CCN(C(=O)Cn2cnc3nc4c(cc3c2=O)CCCC4)CC1 here?
The Potency was inconclusive: 79.4 µM [inhibitor, partial curve, poor fit].

With O=C(NCc1cccc(Br)c1)c1cccn1-c1nnc(N2CCCCC2)s1 as the compound, how does the Potency read?
The Potency was inconclusive: 100 µM [inhibitor, partial curve, poor fit].

How did the “activity change, negative = inhibition” value turn out when Cc1cc(C)c(/C=C/c2onc(C)c2S(=O)(=O)N2CCC(C(=O)N3CCN(c4ccc(Cl)cc4)CC3)CC2)c(C)c1 was run?
The value was inactive: -1.84%.

For CCC(=O)OCCCNc1nc(-c2ccc(Cl)cc2)nc2ccccc12, which Potency is on record?
The Potency was inconclusive: 89.1 µM [inhibitor, partial curve, poor fit].
